The other results are listed elsewhere or left out. The energies were worked out here from pooled read counts, against the library average; single values are noisy.
target: T1, Pho4 (S. cerevisiae) (UniProt P07270); assay: relative binding free energy (BET-seq); higher = weaker binding; conditions: reference: library average
T1 sequence: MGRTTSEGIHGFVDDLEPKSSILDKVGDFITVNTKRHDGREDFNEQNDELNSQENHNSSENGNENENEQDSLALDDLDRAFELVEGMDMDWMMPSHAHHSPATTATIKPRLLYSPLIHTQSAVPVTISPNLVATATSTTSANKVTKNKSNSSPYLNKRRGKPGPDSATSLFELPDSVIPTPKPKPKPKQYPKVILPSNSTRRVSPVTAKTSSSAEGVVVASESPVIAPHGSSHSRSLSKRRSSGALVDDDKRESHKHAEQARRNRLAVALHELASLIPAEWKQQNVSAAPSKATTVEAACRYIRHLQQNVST

Row | Sequence | relative binding free energy [kcal/mol]
1 | AGTTTCACGTGTGTCA | 0.22
2 | CGACTCACGTGGGGGG | -0.04
3 | GAGTACACGTGGTGCG | 0.05
4 | TGGGGCACGTGGGTCA | -0.29
5 | TAGCGCACGTGGAAGG | -0.19
6 | TATTACACGTGTGGTC | 0.03
7 | ATTTGCACGTGCGTGG | -0.03
8 | CGGTACACGTGAGGTG | 0.26
9 | AATCACACGTGGTGTA | 0.07
10 | GATGGCACGTGTGGGC | 0.05
11 | CCAGGCACGTGGGGGC | -0.2
12 | ATATGCACGTGCGAGG | -0.11
13 | AGTTACACGTGCGGCT | 0.1
14 | ATGGGCACGTGGTACT | -0.23
15 | GGTGTCACGTGGATTT | 0.2
16 | AATTCCACGTGTATTG | 0.15
17 | TGATGCACGTGTGGAC | 0.09
18 | GTGTGCACGTGTTATA | -0.06
19 | GTCGGCACGTGTTGAT | -0.03
20 | TCAAACACGTGGTGTT | -0.12
21 | TGGGACACGTGTGTTG | 0.07
22 | ATATTCACGTGTTATG | 0.28
23 | ACGTTCACGTGTCTTT | 0.3
24 | TAAGTCACGTGGGGGG | 0.02
25 | GGGAACACGTGTCGTT | 0.16

Row | Sequence | relative binding free energy [kcal/mol]
26 | CATGTCACGTGAGGTG | 0.24
27 | ATTTTCACGTGTGTCA | 0.33
28 | AAGCTCACGTGGGGGG | 0
29 | AGCAGCACGTGGTTTA | -0.14
30 | GTCTACACGTGGTTGT | 0.12
31 | GGTTTCACGTGTCAGA | 0.2
32 | GGTAGCACGTGTCTTG | -0.07
33 | GTGTGCACGTGTAGCT | -0.08
34 | GTCCGCACGTGTGGGC | 0.13
35 | TCTGGCACGTGTTGGG | -0.03
36 | TAGTTCACGTGGTCTT | 0.14
37 | TGCGACACGTGTAGTA | 0.1
38 | ATAGTCACGTGTGGGA | 0.08
39 | GTGGTCACGTGGAGGG | 0.1
40 | CTGCTCACGTGAGTGG | 0.28
41 | GTGGTCACGTGCATAA | 0.11
42 | AACTGCACGTGGTTGG | -0.05
43 | TAGTGCACGTGGGCGT | -0.16
44 | TCGTGCACGTGATGAG | 0.14
45 | TGTATCACGTGACGGC | 0.37
46 | TGTTGCACGTGTTGGT | 0.04
47 | AATAACACGTGGGTGG | -0.11
48 | GTCAGCACGTGGGGAA | -0.14
49 | TTAATCACGTGATGGC | 0.22
50 | CTTGGCACGTGTGTTT | -0.02

Row | Sequence | relative binding free energy [kcal/mol]
51 | GAGGGCACGTGGTGAC | -0.11
52 | CATGTCACGTGGGGGG | 0
53 | ATGATCACGTGTTCTG | 0.22
54 | TTAACCACGTGGAGGT | -0.1
55 | TTATGCACGTGGGTGC | -0.12
56 | TGGTACACGTGTGACT | 0.22
57 | TAGGACACGTGTATTT | -0.03
58 | AGCGGCACGTGGCAGG | -0.3
59 | GGAGTCACGTGTCATT | 0.06
60 | TTGTACACGTGGTGGC | 0.07
61 | TTGCTCACGTGTGCGG | 0.25
62 | GGATTCACGTGGGGTC | 0.21
63 | TATTACACGTGTAAGG | 0.2
64 | GTTGTCACGTGGGTAG | -0.1
65 | TAATGCACGTGGGATT | -0.17
66 | GTGGTCACGTGCCTTT | 0.04
67 | GGATGCACGTGGACTG | 0.13
68 | CTGAACACGTGGTGGT | -0.04
69 | ACTGTCACGTGAGTTT | 0.25
70 | AACATCACGTGTTGTG | -0.04
71 | TAGTGCACGTGTGATG | 0.06
72 | TTGGGCACGTGAAGGA | 0.21
73 | GGTAACACGTGTGTTC | 0.1
74 | TGATGCACGTGCATTT | -0.02
75 | GTTGGCACGTGAGGCG | 0.18

Row | Sequence | relative binding free energy [kcal/mol]
76 | CATATCACGTGGGGTG | 0.03
77 | AAAGTCACGTGCGATG | 0.23
78 | AGGTGCACGTGCGCAG | -0.15
79 | GGGAGCACGTGGTAAT | -0.08
80 | GTTTACACGTGGAGAA | 0.19
81 | TATTACACGTGAAGTG | 0.27
82 | TGTTTCACGTGCTGGA | 0.28
83 | AAATGCACGTGTGGCA | 0.16
84 | TTTTGCACGTGCGGAA | -0.12
85 | TTGTACACGTGGGAAG | -0.13
86 | ATTTTCACGTGTACGA | 0.38
87 | GTTTGCACGTGCTGTA | 0.13
88 | GGGTACACGTGTGCAG | 0.23
89 | GGATGCACGTGAAGTA | 0.19
90 | AATTGCACGTGAGTAG | 0.38
91 | TGGTACACGTGCGTAA | 0.11
92 | GTGGTCACGTGGTATA | 0.07
93 | GGCGTCACGTGGGAGA | -0.04
94 | TCGTTCACGTGGTGGC | 0.26
95 | GTGGGCACGTGAATGT | 0.16
96 | TTGAGCACGTGGCTAG | -0.17
97 | GGTTGCACGTGAGAAA | 0.27
98 | GATGTCACGTGTACGA | 0.25
99 | TGGAACACGTGGGTCT | 0.01
100 | ATTATCACGTGTTGTT | 0.11

Row | Sequence | relative binding free energy [kcal/mol]
101 | TGGGACACGTGTGGGG | 0.08
102 | AATGGCACGTGGTGGC | -0.34
103 | TACGGCACGTGGATTT | 0.06
104 | AGCGGCACGTGTTTGG | 0.03
105 | TATAGCACGTGGAGAG | -0.12
106 | TGTGTCACGTGATTAG | 0.23
107 | GGTAGCACGTGGTGCC | -0.03
108 | TTCCGCACGTGGGTAG | -0.06
109 | TTGTTCACGTGGATTT | 0.28
110 | TGCTGCACGTGTTGTT | -0.06
111 | CCTGGCACGTGGTGTA | -0.16
112 | ATGTACACGTGCGAGT | 0.13
113 | TATGTCACGTGGATTT | 0.22
114 | TTATTCACGTGAGGGT | 0.38
115 | TAAATCACGTGTTTAA | 0.17
116 | AGGTTCACGTGACGAT | 0.27
117 | TTTGTCACGTGCTTGA | 0.06
118 | ATTTTCACGTGGCGAA | 0.22
119 | GTGCCCACGTGTATGT | 0.08
120 | CTCATCACGTGGGTGT | 0
121 | CGACGCACGTGAGGGT | 0.16
122 | TTTGGCACGTGATGTA | -0.04
123 | GAGGTCACGTGCTATG | 0.12
124 | TGTTCCACGTGGGTCA | -0.02
125 | GGCTGCACGTGTGGGC | 0.09

Row | Sequence | relative binding free energy [kcal/mol]
126 | TAGGACACGTGTATGT | 0.06
127 | TATATCACGTGGTGCT | 0.15
128 | GGTTACACGTGAGGAT | 0.42
129 | ATCGGCACGTGATTGT | 0.04
130 | AATTGCACGTGTGCTT | -0.06
131 | CGAATCACGTGGGTTA | 0.08
132 | TGAAACACGTGGGCGG | -0.06
133 | CGTAGCACGTGGCTGG | -0.08
134 | TGGAACACGTGAGGAG | 0.35
135 | TGGCTCACGTGGTGCA | 0.17
136 | AAGAACACGTGGTTTG | 0.07
137 | TAGCTCACGTGATTGG | 0.39
138 | GGGTCCACGTGGGTGA | -0.02
139 | GATTACACGTGCGGTG | 0.34
140 | TTAAACACGTGGTGGC | 0.05
141 | TAGCTCACGTGATGTA | 0.27
142 | GGTGTCACGTGGCAGA | 0.02
143 | TCGATCACGTGATGGG | 0.46
144 | TTAGTCACGTGTCTTA | 0.03
145 | GTCGGCACGTGTGGCT | 0.01
146 | TGAGTCACGTGCGTAG | -0.07
